From PubChem BioAssay AID686970 (National Center for Advancing Translational Sciences (NCATS), 2013)
About 6,000 (1.7%) of roughly 360,000 compounds were called active. Inconclusive means that the source gave no clear call. Such entries were picked first, then a sample of the others. Calls follow the shape of the dose curve; as a rule, active = well fitted cell-killing curve with a large enough effect; inconclusive = small, poorly fitted or top-dose-only effect, or effect the other way; inactive = flat fitted curve, though single readings scatter. Potencies of inconclusive entries are left out as doubtful fits.

Assay: qHTS for induction of synthetic lethality in tumor cells producing 2HG: qHTS for the HT-1080-NT fibrosarcoma cell line;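 also: NT is the 2HG producing partner of a matched IDH1 knockdown line; nearly all actives have a fitted effect of over 55% in size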;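 as to activity, negative = less viability: 0% = DMSO-treated cells and -100% = media-only wells without cells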
Conditions: HT-1080-NT fibrosarcoma viability, CellTiter-Glo ATP luminescence, 48 h; activity, negative = less viability: at 46.1 µM (top of the series) unless noted
Procedure, shortened: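 Fibrosarcoma NT cells, 750 per well in 5% FBS RPMI, were exposed to compound for 48 hours. Viability: CellTiter-Glo luminescence.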
Potency is read from the fitted curve at half-maximal effect; tags tell the direction and shape of the fitted curve.

Compound	Potency	activity, negative = less viability
CCN(CC)S(=O)(=O)c1ccc2oc(Nc3ccc(OC)cc3)nc2c1	inconclusive [cytotoxic, partial curve]	–
CCn1cc(C(=O)N2CCN(c3cccc(Cl)c3)CC2)c2cc(OC)c(OC)cc2c1=O	inconclusive [cytotoxic, partial curve]	–
C#C[C@]1(O)CC[C@H]2[C@@H]3CCc4cc(OC5CCCC5)ccc4[C@H]3CC[C@@]21C	active: 16.4 µM	–
Cc1cc(C)nc(/N=C(\N)Nc2ccc(OCCC(C)C)cc2)n1	active: 14.6 µM	–
O=C(CN1CCCc2ccccc21)N/N=C/c1ccc(F)cc1F	–	inactive: 5.97%
OC(c1ccc(F)cc1)c1ncc(-c2ccc3ccccc3c2)[nH]1 (centres undefined)	inconclusive [cytotoxic, single point]	–
OC(c1ccc(F)c(F)c1)c1nc(-c2ccc3c(c2)OCO3)cs1 (centres undefined)	–	inactive: -7.52%
FC(F)(F)c1ccc(Cl)c(Nc2nnc(-c3ccncc3)s2)c1	–	inactive: 12.9%
CCc1cccc(NS(=O)(=O)c2ccc(-n3cccn3)cc2)c1	inconclusive [cytotoxic, single point]	–
COc1cc(/C=N/N=C2/NC(=O)C(Cc3ccc(F)cc3)S2)ccc1O (centres undefined)	inconclusive [cytotoxic, partial curve]	–
Cc1ccc2c(C)nc(Nc3nc(CSc4nc5ccccc5[nH]4)cc(=O)[nH]3)nc2c1	active: 17.8 µM	–
O=c1cnn(-c2ccccc2)c(-c2ccccc2)c1	inconclusive [cytotoxic, single point]	–
O=C(C(=NNc1ccccc1)C(=S)Nc1ccccc1)c1ccccc1	inconclusive [rising, single point]	–
CCc1ccc(NC(=O)CSc2ccc(-c3ccccn3)nn2)cc1	inconclusive [cytotoxic, partial curve]	–
Cc1cc(NCCOCCO)n2ncc(-c3ccc(Cl)cc3)c2n1	inconclusive [cytotoxic, single point]	–
CCCCCCCCCCCCCCC(O)C[N+](C)(CCO)CCO (centres undefined)	inconclusive [cytotoxic, partial curve]	–
CC(O)(c1cccc(F)c1)c1nc(-c2cccc(C(F)(F)F)c2)cs1 (centres undefined)	active: 20.6 µM	–
COc1ccc(CCNC(=O)C2CC(O)CN2S(=O)(=O)c2ccc(Cl)cc2)cc1OC (centres undefined)	inconclusive [cytotoxic, partial curve, poor fit]	–
COc1ccc(C(C)NC(=O)C2CCN(CCCc3ccccc3)CC2)cc1OC (centres undefined)	inconclusive [rising, full curve, poor fit]	–
